Test results reported in PubChem BioAssay AID1508623 (National Center for Advancing Translational Sciences (NCATS), 2021).
Out of some 48,000 compounds screened, about 450 (0.94%) were called active. Inconclusive results (about 19%) are left out. Calls follow the shape of the dose curve; as a rule, active = well fitted inhibition curve with a large enough effect; inconclusive = small, poorly fitted or top-dose-only effect; inactive = no such curve, though single readings can be large or run the other way. Some of the results follow.

test: Primary qHTS for Identification of Small Molecule Inhibitors of Huntingtin Promoter Activity; details: HEK293 HTT promoter firefly luciferase reporter (activity 0% = vehicle and -100% = no light), 24 h; series mostly up to 57.5 µM; activity change, negative = inhibition: at the top concentration; also: nearly all actives have a fitted effect of over 50% in size
In short: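 Luminescence was read after Dual-Glo reagent and a 10 min room-temperature incubation. Values were normalized to vehicle (0% activity) and zero RLU (-100% activity). Reporter HEK293 cells had been exposed to compounds (up to 57.5 uM final) for 24 h.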

Activity change, negative = inhibition, inactive:
CC[C@]12CCCN3CCc4c(n(c5ccccc45)[C@@](O)(C(=O)OC)C1)[C@@H]32 6.84%
Cc1nn(-c2ccc3nnc(C)n3n2)c(C)c1CCC(=O)Nc1ccc(OC(F)(F)F)cc1 -6.67%
COc1ccc(-c2cn3nc(N4CCCC(C(=O)NCc5ccccc5OC)C4)sc3n2)cc1 (stereo unspecified) 31.5%
COC(=O)c1cc(-c2ccc(OC)c(OC)c2)c2c(=O)[nH]c(=O)n(C)c2n1 -2.72%
CCC(=O)N1CCc2cc(S(=O)(=O)NC(CC(C)C)C(=O)NCc3ccc(F)cc3)ccc21 (stereo unspecified) -12.9%
Cc1ccc(NC(=O)Cn2c(=O)n(Cc3nc(C)no3)c(=O)c3cc4c(cc32)OCO4)c(Cl)c1 0.851%
Cc1cccc(C)c1NC(=O)Cn1c(=O)n(Cc2ccco2)c(=O)c2ccc(C(=O)NC3CCCC3)cc21 -13.7%
Cc1ccc(S(=O)(=O)c2nc(-c3ccco3)oc2SCC(=O)Nc2ccc(F)cc2)cc1 -15.1%
O=C(CCn1c(=O)c2sccc2n(Cc2cccc(F)c2)c1=O)NCc1ccc2c(c1)OCO2 -0.201%
COc1ccc(NC(=O)CCc2c(C)nc3nc(CNC(=O)OC(C)(C)C)nn3c2C)cc1OC -4.74%
O=C(Nc1ccc(F)c(Cl)c1)C1CCCN(c2cnccn2)C1 (stereo unspecified) -11.1%
COc1ccc(CC2C(=O)Nc3ccc(Br)cc32)cc1OC (stereo unspecified) -12.9%
CCc1ccccc1NC(=O)N1CCN(C(=O)c2nsc3ccccc23)CC1 -5.76%
CC(=O)N1CCCC1c1nc2ccccc2n1Cc1ccccc1C (stereo unspecified) -11.6%
CC1CCN(S(=O)(=O)c2ccc3c(ccn3CCC(=O)NCc3ccc(N(C)C)cc3)c2)CC1 -19.1%
CCNc1nc(NC(C)(C)C)nc(Oc2ccc(=O)n(C)n2)n1 9.7%
O=C(NCCc1ccccc1)C(=O)NCC(c1ccc2c(c1)OCO2)N1CCOCC1 (stereo unspecified) -13.9%
COc1cc(NC(=O)CC(C)n2nc(C)cc2C)cc(OC)c1 (stereo unspecified) -1.36%
Cc1ccc(-c2nnc3ccccc3c2C(=O)Nc2ccccc2F)cc1 51.6%
CCOc1ccccc1C(=O)N(Cc1ccccc1F)C1CCS(=O)(=O)C1 (stereo unspecified) -6.18%
COc1cc(NC(=O)C(CCSC)NS(=O)(=O)c2ccc3c(c2)oc(=O)n3C)cc(OC)c1 (stereo unspecified) -29.9%
Cc1ccc(-n2c(=O)c3c(c4cc(C)ccc4n3C)n(CC(=O)NCc3ccccc3)c2=O)cc1 -5.83%
CCN1CCc2nc3sc(C(=O)c4ccc(F)cc4)c(N)c3cc2C1 -13.8%
COc1ccccc1NC(=O)CSc1nc(-c2ccccc2F)nc2cc(=O)[nH]n12 -5.51%
COc1ccc(NC(=O)c2c(NCc3cccc(OC)c3)sc3c2CCCC3)cc1 -25.5%
Cc1ccc2occ(CC(=O)N(Cc3ccc(C(C)C)cc3)C3CCS(=O)(=O)C3)c2c1 (stereo unspecified) -26.4%
